In experiment [1] the target is human thrombin (PPACK-inhibited, Enzyme Research Laboratories) (human, UniProt P00734 in part). In words: BIAcore (SPR), biotinylated sTM on SA chip, PPACK-inhibited human thrombin as analyte, steady-state 1:1 fit. How it is done:
The thrombin binding properties of various human sTM variants are determined using a BIAcore biosensor 2000 instrument. All measurements are performed at room temperature. All experiments are performed in HBS-P (10 mM HEPES, pH 7.4, containing 150 mM NaCl) buffer containing 5 mM CaCl₂. For all binding experiments, biotinylated sTM variants are immobilized on an SA (streptavidin-coated) sensor chip at a level of 200 to 300 response units (RU). Biotinylated sTM variants are prepared by incubating 10 μM sTM variant (0.5 mL) with 50 μM NHS-LC-Biotin for 2 hours at room temperature, followed by dialysis against phosphate buffered saline overnight. The binding of human thrombin (PPACK-inhibited, Enzyme Research Laboratories), mouse thrombin, and rat thrombin are tested.
The binding of thrombin is evaluated using multiple analytical cycles. Each cycle is performed at a flow rate of 100 μL/minute and consists of the following steps: injection of 250 μL of a solution of varying thrombin concentration with two injections for each concentration followed by a 1 minute delay for dissociation. Following the dissociation phase, the biosensor chip surface was regenerated using an injection of 50 μL of 5 mM EDTA, followed by similar injection of running buffer. Concentrations of thrombin ranged from 200 nM to 1.6 nM, and were prepared by serial, two-fold dilutions, starting with 200 nM thrombin. […]
For orientation: In SPR one partner is held on a chip, and binding of the other changes the refractive index at the surface.

In the next experiment the target is human thrombin (human, UniProt P00734 in part). Description: protein C activation by thrombin/sTM, kinetic chromogenic assay (TLD=Too Low for Detection; sTM 0 to 250 nM). How it is done:
A kinetic analysis is done to determine the rate of activation of human protein C by human sTM variants. For each sTM variant, the reactions are set up as follows. In a final 100 μL reaction volume, human protein C is added to a final concentration of 150 nM and human thrombin is added to a final concentration of 2 nM. sTM controls TMD1 and TMD2 or an sTM variant in AB/BSA buffer (150 mM NaCl; 20 mM Tris pH 7.5; 3 mM CaCl₂; 1 mg/mL BSA) is added to the reaction at final concentrations varying from 0 nM to 250 nM. The reaction mixture is incubated 30 minutes at 37° C. 25 μL of each reaction is removed to a 96 well plate containing 150 μL of Thrombin Stop Buffer (1 unit/ml hirudin in 150 mM NaCl; 20 mM Tris pH 7.5; 3 mM CaCl₂) and incubated for 5 minutes at room temperature. 25 μL of a 4 μM stock solution of S2366 chromogenic substrate (L-Pyroglutamyl-L-prolyl-L-arginine-p-Nitroaniline hydrochloride, Chromogenix) is added and mixed briefly. The Optical Density at 405 nm (OD405) is read on a microplate spectrophotometer in a five minute kinetic read with a 6 second read interval. Michaelis Menton kinetic constants are calculated from the kinetic data using SigmaPlot software with the Enzyme Kinetics Module 1.1. This method was based in part on the protocol described in Grinnell et al., 1994 Biochem J. 303: 929-933.

B1: human TMD2 (wild-type soluble human thrombomodulin truncated immediately after EGF6, without signal peptide) (receptor)
chain: not shown
notes: also called sTMD2; sTM
For orientation: Kd means the concentration at which binding is half-saturated. Low values mean higher affinity, high ones lower affinity. B1 had a Kd in experiment [1] of 10.1 nM. In other words, the double-digit nanomolar range.

B2: TMD[…]A (TMD2 in which the isoleucine at position 424 is substituted with alanine) (receptor)
chain: not shown
notes: Biotinylated with NHS-LC-Biotin and immobilized on a streptavidin chip for the BIAcore assay; also called sTMD[…]A; sTM variant I424A
Consider B2, for which the binding result in the experiment with human thrombin was “no binding”.

The values above are taken from US20110207670A1 (Eli Lilly, published 2011).
